Screen size: about 45,000 compounds; about 65 (0.1%) were called active. Calls come from the whole dose curve; as a rule, active = well fitted activation curve with a large enough effect; inconclusive = small, poorly fitted or top-dose-only effect; inactive = no such curve, though single readings can be large or run the other way. The list shows a part of the results.
Each molecule was assayed against Galactocerebrosidase (Homo sapiens) (UniProt P54803) (assay: A Novel Cell-Based Assay to Identify Small Molecules for B -Galactocerebrosidase). Conditions: 145M-Twi-hGALC-G270D cells, HMU-beta-Gal fluorescence, 48 h; series mostly up to 57.5 µM; activation: at the top concentration.
Procedure, shortened: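 qHTS, 1536-well; 145M-Twi-hGALC-G270D cells (WT line also made) in DMEM/F12 + 10% FBS; compound incubation on live cells; HMU-β-gal 0.1 mM final, pH 5.2, NaTC; carbonate stop; fluorescence increase = enhanced residual activity.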
Note: 0% is about no effect; nearly all actives have a fitted effect of over 65% in size.

Sequence of UniProt P54803 (P54803 whole entry, looked up): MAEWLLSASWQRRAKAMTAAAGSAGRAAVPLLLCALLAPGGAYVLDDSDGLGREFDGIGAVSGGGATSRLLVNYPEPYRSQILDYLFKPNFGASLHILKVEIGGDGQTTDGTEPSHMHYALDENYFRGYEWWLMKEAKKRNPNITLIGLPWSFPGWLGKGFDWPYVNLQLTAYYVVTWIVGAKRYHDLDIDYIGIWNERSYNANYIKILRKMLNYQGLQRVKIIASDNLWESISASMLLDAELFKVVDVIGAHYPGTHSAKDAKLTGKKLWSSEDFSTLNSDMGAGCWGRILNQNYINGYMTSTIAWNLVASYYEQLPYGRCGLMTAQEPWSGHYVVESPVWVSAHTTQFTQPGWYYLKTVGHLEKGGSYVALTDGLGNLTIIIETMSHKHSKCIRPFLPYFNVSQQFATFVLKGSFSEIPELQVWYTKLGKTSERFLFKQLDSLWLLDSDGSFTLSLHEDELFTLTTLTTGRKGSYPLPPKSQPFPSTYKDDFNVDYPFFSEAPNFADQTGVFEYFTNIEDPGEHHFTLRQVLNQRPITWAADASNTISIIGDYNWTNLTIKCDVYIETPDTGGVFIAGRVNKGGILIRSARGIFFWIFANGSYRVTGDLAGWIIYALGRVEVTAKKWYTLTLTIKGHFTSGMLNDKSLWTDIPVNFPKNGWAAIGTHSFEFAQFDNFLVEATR

activation, inactive:
CCc1ccc2oc(C(=O)Nc3nc(-c4ccccc4)ns3)c(C)c2c1 -6.13%, Cc1cccc(CNC(=O)c2ccc(Cn3c(SCc4ccccc4)nc4cccnc43)cc2)c1 -17.2%, Cc1c(C(=O)N(C)C)sc2c1c(=O)n(-c1ccc(F)cc1)c(=O)n2CC(=O)N(C)c1ccccc1 -2.28%, Cc1ccc(OC(C)C(=O)NCC2(N3CCOCC3)CCCCC2)cc1C (configuration not stated) 14.8%, Cc1ccccc1C(=O)Nc1sc2c(c1C(=O)N1CCC(C)CC1)CCCC2 -14.2%, CCN(CCCNC(=O)c1cc2c(=O)[nH]c3ccc(C)cc3c2s1)Cc1ccccc1 -7.66%, CCOC(=O)c1c(NC(=O)/C=C/c2ccc(OC)cc2)sc2c1CCC(C)C2 (configuration not stated) 4.13%, O=C(CSc1nc(=O)[nH]c2c1CCCC2)NCc1ccc(Cl)cc1 -14.2%, CCN(CC)CCNC(=O)c1ccc(N)cc1 -12.3%, COc1cc(C(=O)NCCS(=O)(=O)N2CCN(c3ccccc3)CC2)cc(OC)c1OC -8.87%, Cn1cc(S(=O)(=O)c2ccc(Cl)cc2)c(=O)c2cc(F)c(N3CCOCC3)cc21 -9.87%, COc1cccc(CNC(=O)CCCn2c(=O)c3cccn3c3cccnc32)c1OC 3.15%, CC(C)(C)c1ccc(OCC(=O)NC(Cc2c[nH]c3ccccc23)C(=O)O)cc1 (configuration not stated) -11%, CC(=O)Nc1ccc(NS(=O)(=O)c2cc3c4c(c2)CC(=O)N4CCC3)cc1 -12.5%, CCCCn1nc(NC(=O)c2cccc(Cl)c2)c2cc3ccc(C)cc3nc21 -18.4%, COc1ccccc1/C=C/c1nc(C#N)c(N2CCN(c3ccccc3)CC2)o1 -13.4%, COc1ccc(N2CCN(S(=O)(=O)CCNC(=O)c3ccc(OC(C)C)cc3)CC2)cc1 -12%, Cc1ccc(Nc2c(-c3ccccc3O)nc3cc(C)ccn23)cc1 -19.1%, CN(C(=O)CSc1nc2ccc(NC(=O)COc3ccccc3Cl)cc2s1)c1ccccc1 -12%, CCOc1ccc(NC(=O)CN2CCN(CC(=O)Nc3ccc(OC)cc3)CC2)cc1 -8.96%, COC(=O)c1c(SCC(=O)Nc2cc(F)ccc2F)[nH]c2ccc(C)cc2c1=O -2.01%, O=C(NCCc1ccccc1)c1cc2sccc2n1Cc1ccc(F)cc1 -7.92%, Cc1c(-c2ccc(Cl)cc2)c(=O)oc2c(CN3CCOCC3)c(O)ccc12 -17.8%, COc1ccc(-c2cc(C(F)(F)F)nc(NCCc3ccccc3)n2)cc1 4.2%, CNC(=O)c1c(NC(=O)c2ccc(S(=O)(=O)N3CCCC(C)C3)cc2)sc2c1CCC2 (configuration not stated) -13.8%, Cc1ccc(NC(=O)CSc2nc3ccc(NC(=O)c4ccco4)cc3s2)c(C)c1 -36.3%, CSc1cccc(NC(=O)C(c2ccccc2)N2Cc3ccccc3C2=O)c1 (configuration not stated) -17.1%
